{"source": "ChEMBL document CHEMBL4888484", "about": "“Replenishing the malaria drug discovery pipeline: Screening and hit evaluation of the MMV Hit Generation Library 1 (HGL1) against asexual blood stage Plasmodium falciparum ,using a nano luciferase reporter read-out” (2022)", "note": "The whole screen tested about 150,000 compounds, of which about 540 (0.36%) showed an effect of 50% or more. Some of the results follow.", "data": [{"system": "Plasmodium falciparum", "assay": "Primary screen in NF54 nanoGlo assay, in single point, at 2uM, 72h; a lower Z score goes with more inhibition", "format": "functional, Erythrocyte", "settings": "timepoint 72 hour", "units": {"% Inhibition": "%"}, "values": [{"smiles": "CCCc1noc(CCCC(=O)N2CCCN(c3nc(C)ns3)CC2)n1", "% Inhibition": -5, "Z score": 0.99}, {"smiles": "Cc1cc2c(cc1S(=O)(=O)N1CCC[C@H]1C(=O)Nc1ccc(F)c(Cl)c1)OCC(=O)N2", "% Inhibition": 0, "Z score": -0.05}, {"smiles": "CN1CCN(C(=O)c2cn3c4c(cccc4c2=O)CCC3)CC1", "% Inhibition": -10, "Z score": 1.67}, {"smiles": "C[C@H](Nc1cccc2c1OCCO2)c1cc(F)ccc1F", "% Inhibition": -1, "Z score": 0.14}, {"smiles": "C=C(C)CN(CC)C(=O)c1cc(Cc2ccc(OC)cc2)no1", "% Inhibition": -8, "Z score": 1.5}, {"smiles": "O=C(NCC[C@H](O)C1CCOCC1)Nc1ccccc1", "% Inhibition": -17, "Z score": 2.65}, {"smiles": "CC(C)CCn1c[n+](-c2nc3ccccc3nc2[N-]S(=O)(=O)c2ccc(Cl)cc2)c2ccccc21", "% Inhibition": 4, "Z score": -0.74}, {"smiles": "Cc1cccc(NS(=O)(=O)c2cc(C(=O)NCc3cccnc3)ccc2Cl)c1C", "% Inhibition": -5, "Z score": 1.09}, {"smiles": "COc1cc2ncn([C@H]3[C@@H]4OC[C@@H](O4)[C@@H](NCC4CCCCC4)[C@@H]3O)c2cc1OC", "% Inhibition": 3, "Z score": -0.4}, {"smiles": "C[C@H](c1noc(C2CCN(C(=O)c3ccoc3)CC2)n1)C1CC1", "% Inhibition": -2, "Z score": 0.31}, {"smiles": "CC(C)C[C@]1(CO)CCCN(C(=O)c2cnc(O)cc2O)C1", "% Inhibition": -8, "Z score": 1.06}, {"smiles": "CC(C)(C)OC(=O)NS(=O)(=O)Nc1cccnc1", "% Inhibition": 30, "Z score": -3.92}, {"smiles": "Cn1cc(CN2CC[C@H](O)CC(C)(C)C2)cn1", "% Inhibition": -4, "Z score": 0.36}, {"smiles": "Cc1cnc(NC(=O)CCc2cccs2)s1", "% Inhibition": -6, "Z score": 0.71}, {"smiles": "Cc1[nH]c(=O)c(C#N)c(C)c1CCC(=O)N1CCOC2CCCCC21", "note": "(stereo not given)", "% Inhibition": -24, "Z score": 2.22}, {"smiles": "Cn1ncc2c(N3CCCC[C@@H]3Cn3cccn3)ncnc21", "% Inhibition": 5, "Z score": -0.76}, {"smiles": "COc1ccnc(NC[C@H](C)Cn2nc(C)cc2C(F)(F)F)n1", "% Inhibition": -15, "Z score": 1.53}, {"smiles": "CCN(C(=O)[C@H](C)OC)c1ccc(Cl)c(F)c1", "% Inhibition": -10, "Z score": 2.06}, {"smiles": "Cc1ccc(-c2nc(NC(=O)C3=COCCO3)sc2-c2ccc(C)cc2)cc1", "% Inhibition": -5, "Z score": 0.54}, {"smiles": "CCC(=O)c1cc(Br)ccc1OCC(=O)NC(C)(C)C", "% Inhibition": -6, "Z score": 1.12}, {"smiles": "O=C(Cc1noc(Cc2ccc3c(c2)CCCC3)n1)NC1CCCC1", "% Inhibition": 1, "Z score": -0.14}, {"smiles": "Cn1cc(C(=O)N2CCc3[nH]c(-c4ccccc4)nc3C2)c(=O)[nH]c1=O", "% Inhibition": -9, "Z score": 1.37}, {"smiles": "Cc1cc(C)n2nc(OCCN(C)C)c(S(=O)(=O)c3ccccc3)c2n1", "% Inhibition": -10, "Z score": 1.38}, {"smiles": "CN(Cc1nnc2c(=O)n(C)ccn12)C(=O)[C@@H](F)CC1CCCCC1", "% Inhibition": -3, "Z score": 0.38}, {"smiles": "Cc1cc(NC(=O)CC(C)NC(C)C2COc3ccccc32)no1", "note": "(stereo not given)", "% Inhibition": -2, "Z score": 0.31}, {"smiles": "CCCc1cc(NC[C@H]2CCc3nnc(CC)n3C2)n2ncnc2n1", "% Inhibition": -9, "Z score": 1.52}, {"smiles": "NC(=O)[C@@H]1C[C@@H]2CCCN2[C@]12C(=O)Nc1ccccc12", "% Inhibition": -12, "Z score": 1.48}, {"smiles": "N#Cc1ccc(O)c(NC(=O)C2CC2c2ccco2)c1", "note": "(stereo not given)", "% Inhibition": -13, "Z score": 2.39}, {"smiles": "O=C(Nc1ccncc1)c1nn(Cc2ccccc2Cl)c(=O)c2ccccc12", "% Inhibition": -4, "Z score": 0.51}, {"smiles": "CC(C)(C)OC(=O)N1CC2CC1C2NS(=O)(=O)C1(C)CC1", "note": "(stereo not given)", "% Inhibition": 6, "Z score": -1}, {"smiles": "CN1CCN(S(=O)(=O)c2ccc3n[nH]c(=O)n3c2)CC1", "% Inhibition": -12, "Z score": 1.34}, {"smiles": "CCC(C(=O)NC(C)COC)c1ccccc1", "note": "(stereo not given)", "% Inhibition": 0, "Z score": -0.01}, {"smiles": "CN(Cc1ccco1)c1nc(-c2ccncc2)nc2c1CCNCC2", "% Inhibition": 4, "Z score": -0.49}, {"smiles": "CCn1c(CCc2cccc(NC(=O)c3ccccc3C)c2)nc2ccccc21", "% Inhibition": -10, "Z score": 1.19}, {"smiles": "O=C(O)c1cc(C=Cc2ccc3ncccc3c2)ncn1", "% Inhibition": 38, "Z score": -1.22}, {"smiles": "Cc1onc(-c2ccccc2Cl)c1C(=O)NC1CCN(Cc2ccccc2)C1C", "note": "(stereo not given)", "% Inhibition": -4, "Z score": 0.69}, {"smiles": "Cc1ccc(CN2CCN(Cc3ccncc3)[C@H]3CS(=O)(=O)C[C@H]32)cc1", "% Inhibition": -15, "Z score": 1.95}, {"smiles": "Cc1cc(C)c(CN2CCCN(c3ccc(NC(=O)c4ccco4)cc3)C2=O)c(C)c1", "% Inhibition": -7, "Z score": 1.42}, {"smiles": "CC(C)[C@H](NCC(=O)N1CCN(CC(=O)Nc2ccccc2C(F)(F)F)CC1)c1cccs1", "% Inhibition": -5, "Z score": 0.98}, {"smiles": "COc1cccc2c1CCc1c-2n[nH]c1C(=O)N[C@H](c1nc2ccccc2n1C)C(C)C", "% Inhibition": 2, "Z score": -0.24}, {"smiles": "O=C1NCCN2CCN(Cc3cccn3S(=O)(=O)c3ccccc3)C[C@@H]12", "% Inhibition": -7, "Z score": 0.65}, {"smiles": "Cc1cc(Nc2ccc(C)c(Cl)c2)c2cc(Cl)ccc2n1", "% Inhibition": -3, "Z score": 0.52}, {"smiles": "CC(C)(C)OC(=O)N1CCC(NC(=O)C2CCCC(=O)N2)C1(C)C", "note": "(stereo not given)", "% Inhibition": -14, "Z score": 2.71}, {"smiles": "Cc1nc(NCc2ccc3c(c2)CCO3)cc([C@H]2C[C@@H](O)C2)n1", "% Inhibition": -9, "Z score": 1.5}, {"smiles": "CC(CC(O)c1ccccc1)NCc1nc2ccccc2n1C", "note": "(stereo not given)", "% Inhibition": -5, "Z score": 0.77}, {"smiles": "CCOc1ccccc1CNc1nc(C)c(S(N)(=O)=O)s1", "% Inhibition": -8, "Z score": 1.41}, {"smiles": "CCOC1CC(NC(=O)NC(C)CC(O)c2ccco2)C12CCC2", "note": "(stereo not given)", "% Inhibition": -5, "Z score": 0.62}, {"smiles": "O=C(NCCCc1ccccc1)c1cn(CCCc2ccccc2)nn1", "% Inhibition": 0, "Z score": 0.04}, {"smiles": "O=C(c1cccnc1-c1ccoc1)N1C[C@@H]2CC[C@H]1C2", "% Inhibition": -17, "Z score": 3.29}, {"smiles": "Cn1c([C@H]2CCCN(Cc3cscn3)C2)nc2ccccc21", "% Inhibition": -6, "Z score": 0.81}, {"smiles": "CCCN1C(=O)[C@@H]2CCC(=O)N2c2ccc(C(=O)Nc3ccc(OC)cc3)cc21", "% Inhibition": 10, "Z score": -1.66}, {"smiles": "COc1ccc(CC(=O)Nc2ccc3c(c2)NC(=O)[C@H](C)O3)cc1OC", "% Inhibition": -10, "Z score": 1.88}, {"smiles": "O=C(O)c1c(F)cccc1-c1cccc2cccnc12", "% Inhibition": 19, "Z score": -2.41}, {"smiles": "CC(NC(=O)NC(CCO)C(C)(C)C)C1CCC1", "note": "(stereo not given)", "% Inhibition": 5, "Z score": -0.78}, {"smiles": "COCCc1nc(CCc2cccnc2)n(C2Cc3ccccc3C2)n1", "% Inhibition": -8, "Z score": 1.47}, {"smiles": "CC(C)C(OCC1CCCO1)C(=O)N1CCCC1C1CCCN1C", "note": "(stereo not given)", "% Inhibition": -11, "Z score": 1.6}, {"smiles": "CCc1nnc(NC(=O)[C@H](C)N(C)Cc2cnc3ccccc3c2)s1", "% Inhibition": -6, "Z score": 0.73}, {"smiles": "CN(C)[C@H]1CCN(CC(=O)NCCc2noc(C3CCCC3)n2)C1", "% Inhibition": -11, "Z score": 1.02}, {"smiles": "O=S(=O)(c1ccc(F)c(Cl)c1)N1CCC[C@H](Oc2ccncn2)C1", "% Inhibition": 9, "Z score": -1.29}, {"smiles": "Fc1cnc(NC[C@H]2CCN(C3CCCCC3)C2)nc1", "% Inhibition": 6, "Z score": -0.78}, {"smiles": "O=C(CCn1nc(C(=O)N2CCc3ccccc32)ccc1=O)N1CCN(C2CCCCC2)CC1", "% Inhibition": -1, "Z score": 0.14}, {"smiles": "CCCCN(C)Cc1nc2nc(C)cc(N(C)C)n2n1", "% Inhibition": -5, "Z score": 0.62}, {"smiles": "CN(C)Cc1cn(C[C@H]2C[C@@H](NS(=O)(=O)c3ccccc3)[C@H](O)[C@@H]2O)nn1", "% Inhibition": 0, "Z score": -0.02}, {"smiles": "CC[C@H](c1ccccc1)c1nnc2n1CCS(=O)(=O)CC2", "% Inhibition": 0, "Z score": 0.02}, {"smiles": "CCOC(=O)c1ccc(NC(=O)Cc2c(C(=O)O)c(C)cn2C)cc1", "% Inhibition": -8, "Z score": 1.06}, {"smiles": "C=CCNC(=O)c1cc(Br)ccc1F", "% Inhibition": 2, "Z score": -0.27}, {"smiles": "O=S(=O)(Nc1ncn(Cc2ccccc2Cl)n1)c1cccs1", "% Inhibition": -9, "Z score": 1.25}, {"smiles": "O=S(=O)(Nc1cccc2ccccc12)c1cccs1", "% Inhibition": 35, "Z score": -3.95}, {"smiles": "O=C([C@@H]1CCCN1C(=O)c1cc(-c2ccccc2F)n[nH]1)N1CCOCC1", "% Inhibition": -20, "Z score": 2.38}, {"smiles": "Cc1[nH]ccc1C(=O)Nc1ccc(Oc2nnn[nH]2)cc1", "% Inhibition": 26, "Z score": -3.41}, {"smiles": "COc1ncccc1NC(=O)N(C1CCC(C)CC1)C1CC1", "note": "(stereo not given)", "% Inhibition": -2, "Z score": 0.35}, {"smiles": "O=C(CCC(=O)c1ccc2c(c1)OCCCO2)NCc1ccccc1", "% Inhibition": -7, "Z score": 1.26}, {"smiles": "Cc1cc(NC(=O)N2CCN(c3nccs3)CC2)sn1", "% Inhibition": -7, "Z score": 0.79}, {"smiles": "Cc1ccc(C)c(NC(=O)Cn2c(N3CCC(C)CC3)nc(C)cc2=O)c1", "% Inhibition": -12, "Z score": 1.88}, {"smiles": "COc1cc(C)c([C@H](C)NC(=O)CN2CCCc3occc3C2)cc1OC", "% Inhibition": -9, "Z score": 1.6}, {"smiles": "CCCCN(CCO)C(=O)C[C@H](C)c1cccc(F)c1", "% Inhibition": -1, "Z score": 0.18}, {"smiles": "CN(CC1(C)CCOCC1)C1CCN(Cc2ccccc2)CC1", "% Inhibition": 7, "Z score": -0.62}, {"smiles": "CN(Cc1ccc(Br)o1)C(=O)CNC(=O)C(C)(C)C", "% Inhibition": -2, "Z score": 0.23}, {"smiles": "Brc1cnn(CCN2CCCC2)c1", "% Inhibition": 1, "Z score": -0.12}, {"smiles": "CCC(C)(C)N1CCN(C(=O)NCc2cnc(OC)c(Cl)c2)CC1", "% Inhibition": -11, "Z score": 1.56}, {"smiles": "Cc1cc(-c2n[nH]c(=O)n2CCc2ccc(F)cc2)n(C)n1", "% Inhibition": -13, "Z score": 2.26}, {"smiles": "Cc1ccc2snc(C(=O)NC(C)C)c2c1", "% Inhibition": -12, "Z score": 2.15}, {"smiles": "O=C(c1cccs1)N1CCC(C(=O)N(Cc2ccccc2)c2ccccc2)CC1", "% Inhibition": -6, "Z score": 1.13}, {"smiles": "COc1cccc([C@@H]2CCCN(S(=O)(=O)NCc3ccccc3)C2)c1", "% Inhibition": -3, "Z score": 0.31}, {"smiles": "CCCN(Cc1csc(COc2cc(C)cc(C)c2C)n1)S(=O)(=O)c1ccc(C)cc1", "% Inhibition": -4, "Z score": 0.56}]}]}
